PubChem BioAssay AID686978 (National Center for Advancing Translational Sciences (NCATS), 2013)
Out of some 420,000 compounds screened, about 64,000 (15%) were called active. Inconclusive means that the source gave no clear call. Such entries were picked first, then a sample of the others. The call rests on the fitted dose curve; in most records, active means well fitted inhibition curve with a large enough effect; inconclusive means small, poorly fitted or top-dose-only effect; inactive means flat fitted curve, though single readings scatter. No potency is given beside an inconclusive call; the fits are too rough.

Test: qHTS for Inhibitors of human tyrosyl-DNA phosphodiesterase 1 (TDP1): qHTS in cells in absence of CPT; further: nearly all actives have a fitted effect of over 55% in size
Details: DT40 Tdp1-/- hTDP1 cells, no CPT, ATP luminescence, 48 h; activity change, negative = growth inhibition: at 46.2 µM (top of the series) unless noted
Procedure, shortened: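 Cells were dispensed at 400 per well, compounds added by pin tool, plates incubated ≥48 hr at 37 °C, then CellTiter-Glo added for 30 min at room temperature before luminescence reading. Line: DT40 Tdp1-/- complemented with hTDP1; camptothecin omitted.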
On the % scale 0 is the no-effect control and ±100 the full control effect; potency means the concentration at half of the fitted maximal effect; tags describe the fitted curve by direction and shape.

SMILES	Potency	activity change, negative = growth inhibition
O=C(Nc1ccc(C(=O)NC2CCCCC2)cc1)c1cncc(Br)c1	inactive	
Cc1cc(C(=O)N2CCC2(C)C(=O)NCc2cccc3ccccc23)nn1C (configuration not stated)	inconclusive [inhibitor, single point]	
Cn1c(N)c(C(=O)COC(=O)c2ccnc3ccccc23)c(=O)n(C)c1=O	inactive	
Cc1nn(Cc2c(F)c(F)c(F)c(F)c2F)c(C)c1NC(=O)c1ccc(COc2ccc(F)cc2)o1	active: 20.6 µM	
CCN(CC)CCN(C(=O)c1ccc2c(c1)OCCO2)c1nc2c(Cl)cccc2s1	inconclusive [inhibitor, single point]	
CCN(CC)S(=O)(=O)c1ccc(-c2cn3cc(Cl)ccc3n2)cc1	active: 18.4 µM	
O=C(CN1CCN(c2ccccc2O)CC1)Nc1ccnn1C1CCCC1	active: 20.6 µM	
COc1ccc(NC(=O)CN(C)C(=O)CCCc2nc3ccccc3s2)cc1	inconclusive [inhibitor, single point]	
COc1ccccc1CNC(=O)C(C)Sc1ccc(C)cc1 (configuration not stated)	active: 25.9 µM	
COc1ccc(N2CCN(C(c3cccs3)C(C)NC(=O)c3ccc4c(c3)OCO4)CC2)cc1 (configuration not stated)	active: 20.6 µM	
O=C(Cn1c(=O)c2ccccc2n(CC(=O)Nc2ccc(F)cc2)c1=O)NCCc1ccccc1	inconclusive [inhibitor, full curve]	
O=C(Nc1ccc2nc3n(c(=O)c2c1)CCCCC3)c1ccccn1	inconclusive [inhibitor, single point]	
Cc1oc(-c2cccc(Cl)c2)nc1CN1CCCC(C(=O)N2CCN(c3ccc(F)cc3)CC2)C1 (configuration not stated)	active: 9.2 µM	
Cn1c(-n2c(CCCN3C(=O)c4ccccc4C3=O)nc3ccccc3c2=O)nc2ccccc21	inconclusive [inhibitor, single point]	
CC(=O)c1c(C)n(-c2ccccc2)c2ccc(O)cc12	inconclusive [inhibitor, partial curve]	
COc1ccc2nc(NC(=O)c3ccc(Br)s3)sc2c1	inconclusive [inhibitor, single point]	
CCOc1ccc(/C=N/NC(=O)Cc2csc(Nc3cccc(C(F)(F)F)c3)n2)cc1	inconclusive [inhibitor, single point]	
COc1cccc(C(=O)c2cn(CC(=O)NCCc3ccccc3)c3nc(C)ccc3c2=O)c1		inconclusive: -31.4% [inhibitor]
Cn1c(=O)[nH]c(=O)c2c1nc(Br)n2Cc1ccccc1Cl	inconclusive [inhibitor, single point]	
O=C(CN(Cc1ccccc1)S(=O)(=O)c1ccc(Cl)cc1)NCC1CCCO1 (configuration not stated)	inconclusive [inhibitor, single point]	
O=C(CSc1nnnn1-c1cccnc1)Nc1ccccc1F	inactive	
COc1ccccc1NS(=O)(=O)c1ccc(C(N)=O)cc1	inactive	
CCCNC(=O)C(CC)n1nc(CC)n2c(cc3oc(C)cc32)c1=O (configuration not stated)	active: 20.6 µM	
Cc1cc(C(=O)CSc2nnnn2-c2ccccc2)c(C)n1-c1ccc2c(c1)OCO2	active: 13 µM	

SMILES	Potency	activity change, negative = growth inhibition
Cc1cccc(OCc2nnc(SCC(=O)Nc3cccc(C(=O)N4CCOCC4)c3)n2C)c1	inactive	
Cc1cc(C)n(-c2nc3ccccc3nc2N2CCN(c3cccc(C)c3C)CC2)n1	inactive	
CCN(CC)C(=O)CSc1nnc(-c2ccccc2)n1-c1ccccc1	inconclusive [inhibitor, partial curve]	
CC(C)N1CCC1(C)C(=O)Nc1ccccc1OC(F)F (configuration not stated)	inconclusive [inhibitor, partial curve, poor fit]	
CCCCN(CC)Cc1c(C)[nH]c2c(ccc3ccccc32)c1=O	inconclusive [inhibitor, single point]	
CCOC(=O)c1cc2c(=O)n3ccccc3nc2n(CC2CCCO2)c1=NC(=O)c1ccc(OC)cc1OC (configuration not stated)	active: 16.4 µM	
COc1cccc(NC(=O)Cn2c(=O)n(CCc3ccccc3)c(=O)c3c4c(sc32)CN(C(C)=O)CC4)c1	inconclusive [inhibitor, single point]	
CC1(C(=O)Nc2ccc3ccccc3c2)CCC(=O)N1CCCn1ccnc1 (configuration not stated)	inactive	
COc1cccc(-c2cncnc2NCc2ccccc2OC)c1	inconclusive [inhibitor, single point]	
Cc1ccc(C(C(=O)NC2CCCCC2)N(C(=O)c2csnn2)C2CC2)cc1 (configuration not stated)	inconclusive [inhibitor, partial curve]	
CN(Cc1ccccc1)C(=O)c1ccc2sc([C@H]3C[C@H](O)[C@@H](CO)O3)nc2c1	inactive	
Cc1cccc(CC(=O)NC2CCCCCC2)c1	inconclusive [inhibitor, single point]	
O=C(Nc1cc(Oc2ccccc2)cc([N+](=O)[O-])c1)C12CC3CC(C1)CC(n1cnc(Cl)n1)(C3)C2	inconclusive [inhibitor, single point]	
C[C@@H]1CN([C@H](C)CO)C(=O)CCCn2nncc2CO[C@@H]1CN(C)C(=O)C1CC1	inactive	
CC1(C)CC(n2c(=S)[nH]c3ccccc3c2=O)CCO1 (configuration not stated)		inconclusive: -36.5% [inhibitor]
N#Cc1ccc(CN2CCN(C(=O)c3cccc(S(=O)(=O)N4CCCCCC4)c3)CC2)cc1	inconclusive [inhibitor, single point]	
Cc1cccc(OCc2nnc(SCC(=O)N3CCN(c4ccccc4)CC3)o2)c1C	active: 18.4 µM	
COc1cccc(C(C(=O)NC2CCCC2)N(C(=O)c2ccco2)c2ccccc2)c1OC (configuration not stated)	inconclusive [inhibitor, partial curve, poor fit]	
Cc1ccccc1C(=O)N1CCN(c2ccc([N+](=O)[O-])c(NCc3ccco3)c2)CC1	inconclusive [inhibitor, single point]	
CC1(C)C(C=C(Cl)Cl)C1C(=O)NC(O)C(=O)c1ccccc1 (configuration not stated)	inactive	
C[C@@H]1CCN=C(N)S1	inactive	
CC(C)OC(=O)c1cccc2c1C(=O)c1ccccc1-2	inconclusive [inhibitor, partial curve]	
O=C1c2cccc3cccc(c23)C(=O)N1CCCN1CCN(c2ccc(F)cc2)CC1	inconclusive [inhibitor, single point]	
Cc1coc2c1c(C)cc1oc(=O)c(CC(=O)NCCCCCC(=O)O)c(C)c12	inactive	

SMILES	Potency	activity change, negative = growth inhibition
COc1ccc(C(=O)Cn2c(=O)oc3ccc(C)cc32)cc1	inconclusive [inhibitor, single point]	
Cc1nn(-c2ccc(C(=O)Nc3nnc(C4CC4)s3)cc2)c(C)c1Cl	inactive	
CCc1ccc(C(=O)CN(C#N)c2nc(C)cc(C)n2)cc1	inconclusive [inhibitor, single point]	
CCOC(=O)C1=C(COC(=O)/C=C/c2ccc(OC)cc2)NC(=O)NC1C (configuration not stated)	active: 20.6 µM	
c1cncc(-c2nc(NCC3COc4ccccc4O3)c3ccccc3n2)c1 (configuration not stated)	inconclusive [inhibitor, single point]	
Cc1ccc(N=C2c3ccccc3C(=O)C2[N+](=O)[O-])cc1C (configuration not stated)	inconclusive [inhibitor, full curve]	
COc1ccc(C(C)C)cc1S(=O)(=O)N1CCC(C(=O)NCc2cccnc2)CC1	inconclusive [inhibitor, single point]	
CCO/N=C1\C(=O)N(c2ccccc2)c2ccccc21	inactive	
COc1ccccc1OCCCn1c(C2CC(=O)N(c3ccc(F)cc3)C2)nc2ccccc21 (configuration not stated)	active: 8.2 µM	
CCOC(=O)c1nn(-c2cccc(Cl)c2)c2nc(CC(C)C)c(C#N)c(=O)n12	inconclusive [inhibitor, single point]	
O=C(Cn1c(=O)c(=O)n(Cc2ccccc2)c2ccc(Cl)cc21)Nc1cccc(F)c1	inconclusive [inhibitor, single point]	
Cc1nc(N2CCCCC2)c2ccsc2n1	inconclusive [inhibitor, single point]	
O=C(OCCN1C(=O)c2ccccc2C1=O)c1cc(S(=O)(=O)N2CCOCC2)ccc1Cl	inactive	
CC(=O)N1CCN(c2ccc(S(C)(=O)=O)cc2[N+](=O)[O-])CC1	inactive	
Cc1cccc2nc(Cn3c(=O)n(-c4ccccc4)c(=O)c4c5c(sc43)CCC5)cc(=O)n12	inconclusive [inhibitor, single point]	
O=C1CC(NS(=O)(=O)c2cccnc2)CN1c1ccccc1 (configuration not stated)	inconclusive [inhibitor, partial curve, poor fit]	
CN(C)/C=N/c1c(C#N)cnn1-c1ccccc1	inactive	
COc1ccc(CCNC(=O)COC(=O)c2ccccn2)cc1	inactive	
COc1ccc(CCC(C)N2CCC(CO)(Cc3ccccc3)CC2)cc1 (configuration not stated)	inconclusive [inhibitor, partial curve]	
COc1ccc(S(=O)(=O)N2CCN(C(=O)c3cc(C)oc3C)CC2)cc1	inactive	
C(=C\c1ccnc2ccccc12)/c1ccc(N(Cc2ccccc2)Cc2ccccc2)cc1	active: 12.6 µM	
Cc1ccc(NS(=O)(=O)c2ccc(C3CCCCC3)cc2)cc1	inconclusive [inhibitor, single point]	
CCC(C)NC(=O)/C=C1\Sc2ccccc2NC1=O (configuration not stated)	inconclusive [inhibitor, partial curve]	
CCN1c2ccccc2-c2nc(SCC(=O)Nc3cc(OC)cc(OC)c3)ncc2S1(=O)=O	inactive	
